Results are given in words; binding and its absence hold for the method and conditions named. Binding seen in cells or lysates may run through a third protein. Some entries that bind do so weakly or less than the wild type. Sequences can lack the tags named with a protein.
Experiments:
[1] = target: T1, 1xFLAG-CASZ1b (human) (UniProt Q86V15); experiment: condition: only with PARP inhibitor AZD2281, 50 μM, 24 hr; co-IP; HEK293T transfected with FLAG-CASZ1b for 5.5 hr, then PARP inhibitor AZD2281 (50 μM) for 24 hr; anti-FLAG co-IP, western blot
T1 sequence: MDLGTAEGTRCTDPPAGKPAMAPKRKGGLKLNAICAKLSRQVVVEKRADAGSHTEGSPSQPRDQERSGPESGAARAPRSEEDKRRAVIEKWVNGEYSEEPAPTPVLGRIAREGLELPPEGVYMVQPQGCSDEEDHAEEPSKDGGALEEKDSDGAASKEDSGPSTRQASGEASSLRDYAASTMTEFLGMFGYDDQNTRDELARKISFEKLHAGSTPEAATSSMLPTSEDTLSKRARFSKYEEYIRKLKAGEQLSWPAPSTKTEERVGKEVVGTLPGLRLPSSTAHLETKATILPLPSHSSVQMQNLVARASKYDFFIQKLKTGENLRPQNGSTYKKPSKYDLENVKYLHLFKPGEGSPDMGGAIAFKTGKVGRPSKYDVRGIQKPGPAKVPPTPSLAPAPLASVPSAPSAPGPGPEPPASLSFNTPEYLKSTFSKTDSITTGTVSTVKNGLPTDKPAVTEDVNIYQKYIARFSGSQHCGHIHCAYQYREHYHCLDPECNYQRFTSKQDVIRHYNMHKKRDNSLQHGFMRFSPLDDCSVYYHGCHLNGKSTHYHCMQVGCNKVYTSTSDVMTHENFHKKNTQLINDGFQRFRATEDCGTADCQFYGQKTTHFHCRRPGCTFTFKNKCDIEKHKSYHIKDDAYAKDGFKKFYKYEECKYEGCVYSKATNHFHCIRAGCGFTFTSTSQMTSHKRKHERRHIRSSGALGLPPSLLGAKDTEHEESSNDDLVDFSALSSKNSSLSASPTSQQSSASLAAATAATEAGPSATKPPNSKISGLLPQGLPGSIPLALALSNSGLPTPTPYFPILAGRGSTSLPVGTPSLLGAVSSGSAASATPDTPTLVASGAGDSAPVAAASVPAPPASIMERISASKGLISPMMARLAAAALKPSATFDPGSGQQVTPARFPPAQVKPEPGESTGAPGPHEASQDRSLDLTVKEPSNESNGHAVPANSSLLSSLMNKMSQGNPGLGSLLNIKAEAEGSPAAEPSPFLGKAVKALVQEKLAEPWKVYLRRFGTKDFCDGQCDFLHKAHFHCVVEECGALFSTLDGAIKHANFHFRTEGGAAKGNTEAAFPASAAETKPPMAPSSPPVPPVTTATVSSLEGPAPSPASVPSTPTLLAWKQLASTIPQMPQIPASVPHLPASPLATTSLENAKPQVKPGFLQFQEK

Amino acid sequences for entries named in this document (tags omitted).
UniProt P18887: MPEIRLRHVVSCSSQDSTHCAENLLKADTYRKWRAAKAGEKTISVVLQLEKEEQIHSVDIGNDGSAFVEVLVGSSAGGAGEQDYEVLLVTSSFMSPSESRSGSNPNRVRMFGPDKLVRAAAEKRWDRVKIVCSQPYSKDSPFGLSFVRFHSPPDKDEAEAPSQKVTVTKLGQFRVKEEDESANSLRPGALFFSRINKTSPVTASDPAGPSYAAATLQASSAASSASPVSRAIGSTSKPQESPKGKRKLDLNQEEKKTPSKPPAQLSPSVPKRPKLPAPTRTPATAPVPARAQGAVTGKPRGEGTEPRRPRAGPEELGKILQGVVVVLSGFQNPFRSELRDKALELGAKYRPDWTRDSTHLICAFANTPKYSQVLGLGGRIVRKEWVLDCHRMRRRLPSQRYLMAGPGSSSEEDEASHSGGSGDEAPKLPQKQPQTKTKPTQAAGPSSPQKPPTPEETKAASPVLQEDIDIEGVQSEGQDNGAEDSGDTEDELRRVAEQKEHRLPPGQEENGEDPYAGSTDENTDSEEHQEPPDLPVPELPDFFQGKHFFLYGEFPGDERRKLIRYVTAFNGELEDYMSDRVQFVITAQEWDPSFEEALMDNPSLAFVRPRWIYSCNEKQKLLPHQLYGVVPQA
UniProt P04406: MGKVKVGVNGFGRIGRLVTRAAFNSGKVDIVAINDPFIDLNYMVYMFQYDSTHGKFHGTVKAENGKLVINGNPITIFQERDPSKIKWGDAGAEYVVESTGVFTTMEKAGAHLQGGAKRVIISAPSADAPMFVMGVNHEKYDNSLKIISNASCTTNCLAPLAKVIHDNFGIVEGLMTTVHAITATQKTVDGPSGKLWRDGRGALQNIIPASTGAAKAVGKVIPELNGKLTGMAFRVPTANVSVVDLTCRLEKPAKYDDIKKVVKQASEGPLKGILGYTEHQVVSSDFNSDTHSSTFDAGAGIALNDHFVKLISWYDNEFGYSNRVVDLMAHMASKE

[2] = target: T1, 1xFLAG-CASZ1b (human); experiment: co-IP; HEK293T transiently transfected with 1xFLAG-CASZ1b, its mutants or empty vector; whole cell extract (200 mM NaCl, 1% Triton X-100, benzonase), ANTI-FLAG M2 magnetic beads 4 hr at 4°C, western blot; in Figure 6B with or without PARP inhibitor AZD2281 (50 μM, 24 hr)
[3] = target: T2, FLAG-CASZ1b N-terminus deletion mutant without AA 1-185 (human) (UniProt Q86V15); experiment: as above
T2 sequence: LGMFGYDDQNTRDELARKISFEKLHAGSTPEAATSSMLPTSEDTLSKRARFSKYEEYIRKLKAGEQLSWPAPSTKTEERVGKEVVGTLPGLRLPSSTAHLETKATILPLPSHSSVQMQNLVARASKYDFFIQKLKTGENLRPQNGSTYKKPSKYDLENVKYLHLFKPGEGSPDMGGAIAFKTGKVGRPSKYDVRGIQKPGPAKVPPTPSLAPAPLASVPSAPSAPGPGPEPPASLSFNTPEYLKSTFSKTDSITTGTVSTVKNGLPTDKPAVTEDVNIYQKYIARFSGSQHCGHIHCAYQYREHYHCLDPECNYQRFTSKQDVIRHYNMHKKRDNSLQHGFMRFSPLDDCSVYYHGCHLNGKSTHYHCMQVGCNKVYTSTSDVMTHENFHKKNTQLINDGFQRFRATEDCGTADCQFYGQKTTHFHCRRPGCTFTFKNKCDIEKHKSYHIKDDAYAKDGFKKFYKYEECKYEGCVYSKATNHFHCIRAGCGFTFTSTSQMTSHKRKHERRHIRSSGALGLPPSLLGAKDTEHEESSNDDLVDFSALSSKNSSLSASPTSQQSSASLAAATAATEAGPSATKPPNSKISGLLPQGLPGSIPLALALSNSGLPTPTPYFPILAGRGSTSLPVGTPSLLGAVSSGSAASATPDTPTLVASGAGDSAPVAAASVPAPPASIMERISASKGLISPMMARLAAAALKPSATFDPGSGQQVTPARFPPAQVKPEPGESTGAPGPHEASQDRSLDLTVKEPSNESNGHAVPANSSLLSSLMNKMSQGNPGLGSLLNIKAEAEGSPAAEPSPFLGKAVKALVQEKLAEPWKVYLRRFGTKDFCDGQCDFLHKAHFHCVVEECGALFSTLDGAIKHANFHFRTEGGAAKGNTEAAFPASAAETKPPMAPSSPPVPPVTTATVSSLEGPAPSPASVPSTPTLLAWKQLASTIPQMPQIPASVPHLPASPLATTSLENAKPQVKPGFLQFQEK

[4] = target: T3, FLAG-CASZ1b with deletion of AA101-185 (human) (UniProt Q86V15); experiment: as above
T3 sequence: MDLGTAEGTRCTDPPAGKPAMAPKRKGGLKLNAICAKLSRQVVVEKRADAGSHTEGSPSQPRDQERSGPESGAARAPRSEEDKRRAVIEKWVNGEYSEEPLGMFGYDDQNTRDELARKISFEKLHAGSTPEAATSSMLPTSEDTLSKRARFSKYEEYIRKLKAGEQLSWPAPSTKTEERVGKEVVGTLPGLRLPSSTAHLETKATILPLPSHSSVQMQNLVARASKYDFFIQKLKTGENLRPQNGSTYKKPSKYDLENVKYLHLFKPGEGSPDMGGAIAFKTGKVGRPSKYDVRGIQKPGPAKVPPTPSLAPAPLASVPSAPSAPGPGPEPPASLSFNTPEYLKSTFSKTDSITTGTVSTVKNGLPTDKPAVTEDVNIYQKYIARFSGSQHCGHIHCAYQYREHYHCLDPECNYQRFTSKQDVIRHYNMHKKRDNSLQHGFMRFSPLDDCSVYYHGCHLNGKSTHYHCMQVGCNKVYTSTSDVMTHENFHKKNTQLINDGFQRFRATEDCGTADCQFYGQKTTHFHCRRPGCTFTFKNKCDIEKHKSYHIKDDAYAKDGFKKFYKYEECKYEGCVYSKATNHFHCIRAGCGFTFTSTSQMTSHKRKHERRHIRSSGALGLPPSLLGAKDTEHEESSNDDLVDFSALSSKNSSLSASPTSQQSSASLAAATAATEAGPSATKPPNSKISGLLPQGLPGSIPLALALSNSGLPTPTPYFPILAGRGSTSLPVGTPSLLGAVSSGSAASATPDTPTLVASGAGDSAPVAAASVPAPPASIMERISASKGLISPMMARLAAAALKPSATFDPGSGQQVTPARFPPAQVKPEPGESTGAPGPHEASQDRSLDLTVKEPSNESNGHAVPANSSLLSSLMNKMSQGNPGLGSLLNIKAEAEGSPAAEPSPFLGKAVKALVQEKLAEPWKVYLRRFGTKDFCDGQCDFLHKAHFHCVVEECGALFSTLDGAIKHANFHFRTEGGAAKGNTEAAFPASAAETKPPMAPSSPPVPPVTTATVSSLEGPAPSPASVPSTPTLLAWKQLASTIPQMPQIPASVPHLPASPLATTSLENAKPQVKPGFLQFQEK

Row | Substance | binding [1] | binding [2] | binding [3] | binding [4]
1 | XRCC1 (HEK293T) (from UniProt P18887 1-633) | no binding | binds | – | –
2 | GAPDH (HEK293T) (from UniProt P04406 1-335) | – | no binding | no binding | no binding
